Assay results taken from PubChem BioAssay (NCI).
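Where inhibition never reached the appropriate level, the endpoint shown equals the highest concentration tested. Otherwise, values were interpolated linearly from a five-concentration, 48-hour dose response in 96-well plates. GI50: concentration for 50% inhibition of growth. TGI: concentration producing complete growth inhibition.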

test system: NCI-H322M lung; experiment: NCI anticancer screen, dose series, 48 h

Row | Compound | GI50 [µM] | TGI [µM]
1 | Cn1cc(-c2cc(N)n3nc(-c4cn(C)c5ncc(Br)cc45)cc3n2)c2cc(Br)cnc21 | 11.6 | 35.4
2 | O=C(N=Nc1c(O)[nH]c2ccc(Cl)cc12)c1ccc2nc(-c3ccc(Cl)cc3)[nH]c2c1 | 13.9 | > 57.7
3 | O=C(CN1CCN(c2ncnc3c2cnn3-c2ccccc2)CC1)Nc1nncs1 | 14.4 | 27.5
